# Laboratory results reported in PubChem BioAssay AID1259400 (National Center for Advancing Translational Sciences (NCATS), 2018).
# Hit rate of the full screen: of about 350,000 compounds, about 2,100 (0.6%) were called active. The inconclusive results got no clear call from the source; some entries with a clear call stand among them for comparison.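 How the source made its calls: active means activity change of -60% or lower, but not beyond a set lower limit; inconclusive means change between -60% and -40%, or beyond the set limit; inactive means change above -40%.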 The source holds several records for some structures; these can differ, active in one and inactive in another.
# Molecular target: Relaxin receptor 1 (Homo sapiens) (UniProt Q9HBX9)
# Assay: qHTS Assay for Antagonists of the Relaxin Receptor RXFP1
# Settings: HEK293-RXFP1, relaxin-stimulated cAMP HTRF, 30 min; at 57.5 µM; hits give low values
# From the text: The relaxin hormone is involved in the variety of biological functions in normal tissues and diseases. The role of relaxin is well-established in female reproduction and parturition, mammary gland and endometrial development, maintenance of myometrial quiescence during pregnancy. Relaxin signaling through its G protein-coupled receptor (GPCR) RXFP1 results in ECM remodeling through regulation of collagen deposition, cell invasiveness, proliferation and overall tissue homeostasis. […] Recombinant human relaxin (rhRlx) is currently being tested in clinical trials as a protective agent in congestive heart failure, in treating severe preeclampsia, and as an anti-fibrotic agent in various organs. […] Upon relaxin binding RXFP1 activation leads to the activation of adenylate cyclase (AC) via G?s. cAMP will activate PKA, which phosphorylates many signaling proteins. Thus, detection of cAMP increase is an easy and reliable indication of relaxin receptor activation. To screen for antagonists of the relaxin receptor, a HEK293T cell line stably transfected with RXFP1 was used. RXFP1 activation by relaxin in presence of various concentrations of tested compounds was assayed by changes in cAMP levels as detected with a time-resolved fluorescence energy transfer (TR-FRET) cAMP detection kit.
# For the primary screening, we used HTRF(R) (Homogenous Time-Resolved Fluorescence) cAMP HiRange assay (Cisbio Bioassays, 62AM6PEJ). Presence of cAMP in the cell lysate disrupts binding between the Cryptate-labeled anti-cAMP and d2-labeled cAMP pair, leading to a decrease in TR-FRET signal. The libraries were screened at two doses (57microM and 11microM), followed by a confirmation of the hits at 7-point serial dilution in the range of final concentrations [57microM - 78nM]. Data were normalized to the controls for basal activity (buffer only) and 100% activity (5 nM porcine relaxin). The EC50 values were determined from concentration-response data modeled with the standard Hill equation. NCGC Assay Protocol Summary: HiHEK (Hawaiian HEK293 LGR7 stably transfected with human RXFP1) were grown in the following media: DMEM+10%FBS+Pen/Strep + Geneticin (1mg/ml). For the assay, the cells were seeded in DMEM+Pen/Strep (with no serum & selective antibiotics) at 2,100 cells/ 3microl/well with MultiDrop Combi dispenser (Thermo Scientific, Logan, UT) onto white tissue culture treated solid bottom1536-well plates (Greiner #789173-F) and allowed to attach/recover overnight at 37 degrees C, 5% CO2. Next, 23nl/well of compound solutions in DMSO were transferred into wells with a pintool (Kalypsis, San Diego, CA). […] EC80 (relaxin at 50pM final concentration) was dispensed to the rest of the plate except columns 1&2 which were used as a negative control (EC0, buffer only), 1microl/well also. The cells were stimulated by relaxin in the presence of compounds for 30 minutes at 37 degrees C, 5% CO2. The detection reagents were prepared individually by dilution in Lysis buffer (supplied with the assay kit) just prior to dispensing. 1microl/well of cAMP-d2 and 1microl/well anti-cAMP-Eu3+-Cryptate antibodies were added simultaneously with BioRAPTR FRDtrade mark Workstation (Beckman Coulter). The plates were incubated at ambient temperature for 30 minutes and, then, FRET signal was read on Envision plate reader (PerkinElmer, Waltham, MA), at wavelengths 340nm (excitation), 615nm & 665nm (emission of donor and acceptor channels respectively).
# On the % scale 0 is the no-effect control and ±100 the full control effect.
# Sequence of UniProt Q9HBX9 (Q9HBX9 whole entry, looked up): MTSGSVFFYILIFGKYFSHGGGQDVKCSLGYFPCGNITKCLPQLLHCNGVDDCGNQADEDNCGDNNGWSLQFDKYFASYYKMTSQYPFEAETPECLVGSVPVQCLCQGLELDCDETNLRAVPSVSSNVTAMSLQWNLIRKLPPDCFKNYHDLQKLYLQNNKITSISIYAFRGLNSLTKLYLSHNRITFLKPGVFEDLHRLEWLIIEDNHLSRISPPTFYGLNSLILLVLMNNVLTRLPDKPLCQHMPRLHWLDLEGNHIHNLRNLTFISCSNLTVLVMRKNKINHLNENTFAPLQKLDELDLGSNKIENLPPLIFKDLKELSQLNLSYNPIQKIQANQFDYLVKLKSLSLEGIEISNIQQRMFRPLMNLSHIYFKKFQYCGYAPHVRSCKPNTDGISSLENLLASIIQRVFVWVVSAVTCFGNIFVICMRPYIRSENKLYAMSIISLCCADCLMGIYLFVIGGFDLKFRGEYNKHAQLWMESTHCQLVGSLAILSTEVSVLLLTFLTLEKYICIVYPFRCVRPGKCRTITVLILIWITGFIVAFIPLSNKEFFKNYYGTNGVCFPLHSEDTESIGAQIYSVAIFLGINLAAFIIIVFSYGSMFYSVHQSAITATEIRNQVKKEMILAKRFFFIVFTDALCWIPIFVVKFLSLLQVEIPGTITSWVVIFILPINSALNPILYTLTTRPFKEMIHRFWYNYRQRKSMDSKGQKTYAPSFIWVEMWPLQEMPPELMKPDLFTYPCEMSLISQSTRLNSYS
row,SMILES,"activity change, negative = inhibition"
1,CC(C)(C)NC[C@H](O)c1ccc(O)cc1Cl,inactive: 1.98%
2,CN1C(=O)C(=Cc2ccccc2OCc2ccccc2Cl)C(=O)N(C)C1=O,inconclusive: -45.3%
3,Cc1ccccc1-n1c(/C=C/c2ccc(O)cc2)nc2ccccc2c1=O,inconclusive: -47%
4,COc1ccc(C(=O)C2CCCN(Cc3ccc(C)s3)C2)c(OC)c1 (stereo not drawn),inconclusive: -48.5%
5,CCOC(=O)c1nc2ccccc2c(=O)n1-c1ccc(C)cc1,inactive: -8.33%
6,Cc1ccc(Cn2nnnc2CN2CCC(n3nnc4cc(C)ccc43)CC2)cc1,inactive: 2.41%
7,O=C1C(I)=CC(=C(c2cc(I)c(O)c(I)c2)c2ccccc2C(=O)O)C=C1I,inconclusive: -44.7%
8,CN(C)c1ccc(/C=C/c2cc[n+](C)c3ccccc23)cc1,active: -95.4%
9,CCC12CN3CCN(CC(C3)/C1=N/NC(N)=O)C2,inconclusive: -45.9%
10,Cc1cc(C)n(-c2ccc(NN=C(C#N)C#N)cc2)n1,inactive: -14.2%
11,COC(=O)C(O)(c1ccc(NC(=S)NC(=O)c2ccc(Cl)cc2Cl)c(C)c1)C(F)(F)F (stereo not drawn),inconclusive: -40.5%
12,Nc1ccc(C2(c3ccc(N)cc3)c3ccccc3-c3ccccc32)cc1,active: -80.3%
13,CS(=O)(=O)c1ccc(C(=O)C2C(=O)CCCC2=O)c([N+](=O)[O-])c1,inconclusive: -42.1%
14,CC(C)c1ccc(N2C(=O)NC(=O)/C(=C\C=C\c3ccco3)C2=O)cc1,inconclusive: -40.2%
15,COc1cc(/C=C(/C)[N+](=O)[O-])ccc1OCc1ccccc1Cl,inconclusive: -40.8%
16,OC(c1cccc(Cl)c1)(c1cccc(Cl)c1)C1CN2CCC1CC2 (stereo not drawn),inconclusive: -43.3%
17,O=C(CCCCCn1c(=S)[nH]c2ccccc2c1=O)N1CCC2(CC1)OCCO2,active: -82.9%
18,CCCCCCCSc1cc(OC)c(CCNC)cc1OC,active: -69.6%
19,CC(C(=O)c1ccccc1)N(C)C (stereo not drawn),inactive: 1.83%
20,O=C1NC(=O)N(Cc2ccco2)C(=O)/C1=C/c1ccc(-c2cccc([N+](=O)[O-])c2)o1,active: -66.9%
21,O=c1nc(/C=C/c2ccc(Cl)cc2Cl)cc(C(F)(F)F)[nH]1,active: -74.6%
22,O=c1[nH]c(=S)n(-c2ccc(Cl)cc2)c(O)c1/C=N/N1CCOCC1,inconclusive: -45.1%

row,SMILES,"activity change, negative = inhibition"
1,CN(C)CC1Oc2ccccc2OC1(O)c1ccccc1 (stereo not drawn),inconclusive: -55.2%
2,NS(=O)(=O)c1ccc(N2CCNCC2)cc1,inconclusive: -52.7%
3,c1ccc(C(OCCN2CCN(c3ncccn3)CC2)c2ccccc2)cc1,inconclusive: -52%
4,O=C1NC(=O)C(=Cc2c(Cl)cccc2Cl)C(=O)N1,inconclusive: -48.5%
5,Clc1cccc(CNCCc2c[nH]c3ccccc23)c1,active: -84.1%
6,CC(C)n1c(O)c(C2c3cc(Cl)ccc3Oc3[nH]c(=O)n(C(C)C)c(=O)c32)c(=O)[nH]c1=O (stereo not drawn),active: -83.9%
7,c1ccc(-c2cc(-c3ccccc3)[n+](-c3ccccc3)c(-c3ccccc3)c2)cc1,inconclusive: -47.9%
8,CN(C)/C=C1/C(=O)NC(=O)N(CCNc2ncc(C(F)(F)F)cc2Cl)C1=O,inconclusive: -40.9%
9,Brc1ccc2[nH]cc(/C=N/N3CCCCC3)c2c1,inactive: -5.33%
10,CCOC(=O)CC(SP1(=S)OCC2(CCCCO2)C(C2CCCCO2)O1)C(=O)OCC (stereo not drawn),inconclusive: -42.3%
11,Cc1ccc(C2CC3CCC(C2)N3Cc2ccccc2F)cc1 (stereo not drawn),inconclusive: -46.7%
12,Cc1ccc(CCN2CC(C(=O)N3CCC4(CC3)OCCO4)CC2=O)cc1 (stereo not drawn),inactive: -2.04%
13,O=C(CNC(=O)c1ccc(Br)cc1)Nc1ccc(Br)cc1C(=O)c1ccccc1,inactive: -0.167%
14,CC(C)C(=O)Nc1ccc(N2CCN(C)CC2)c(F)c1,inconclusive: -55.5%
15,Cc1cc(C=C(C#N)C#N)ccc1N1CCCC1,inconclusive: -42.5%
16,Oc1ccc(Cl)cc1Cc1ccccc1,inconclusive: -57.2%
17,S=P(NCCNP(=S)(N1CC1)N1CC1)(N1CC1)N1CC1,inconclusive: -54.1%
18,COc1cc(-n2c(=S)[nH]c3ccccc3c2=O)c(Cl)cc1Cl,inconclusive: -48.2%
19,CC/C(CC(c1ccccc1)c1c(O)c2ccccc2oc1=O)=N\NC(N)=S (stereo not drawn),inactive: 26.5%
20,O=S1(=O)N(Cc2ccccc2)CCCN1Cc1ccc(F)cc1Cl,inconclusive: -46.1%
21,O=c1oc2ccccc2c(O)c1C(CC(O)c1ccc(-c2ccc(Br)cc2)cc1)c1ccccc1 (stereo not drawn),active: -63.8%
22,Cc1ccc(OCC(=O)N2CCN(C3CCC(c4ccccc4)CC3)CC2)cc1 (stereo not drawn),inconclusive: -57.8%

row,SMILES,"activity change, negative = inhibition"
1,Clc1ccc(CO/N=C(\Cn2ccnc2)c2ccc(Cl)cc2Cl)c(Cl)c1,inconclusive: -42.1%
2,CNC(=O)O/N=C(\C)Cc1nnn(-c2cc(C)on2)n1,inconclusive: -50.5%
3,CN1CCN(c2ccc([N+](=O)[O-])c3no[n+]([O-])c23)CC1,active: -87.4%
4,CC12CCC3C(CCC4(O)CC(O)CCC34C=O)C1(O)CCC2C1=CC(=O)OC1 (stereo not drawn),inactive: -13.4%
5,Cc1cc(C)cc(N2C(=O)/C(=C\c3ccc(N4CCN(C)CC4)o3)C(=O)NC2=S)c1,inconclusive: -42.5%
6,Cc1ccc(-n2c(O)c(/C=N/Nc3ccccc3)c(=O)[nH]c2=O)cc1C,active: -70.4%
7,CC(=O)Nc1ccccc1C(=O)OCC(=O)c1ccc2c(c1)OCCO2,inactive: 1.36%
8,O=P(Nc1ccccc1)(Nc1ccccc1)Oc1ccc(Cl)cc1,inconclusive: -50.4%
9,CSc1ccc(/C=C/c2nc3ccccc3c(=O)n2-c2cccc(Cl)c2C)cc1,inconclusive: -46.2%
10,Cc1cccc(C2=NCC(=O)N(CC(=O)NCc3ccco3)c3sc4c(c32)CCCC4)c1,active: -69.2%
11,CCCCC(=O)N/N=C/c1c(O)n(CC)c(=S)n(CC)c1=O,inconclusive: -50.5%
12,O=C1NC(=O)N(c2ccccc2)C(=O)/C1=C/c1ccc(Sc2ccccc2)o1,active: -109%
13,CC(C)(C)NS(=O)(=O)c1ccc(OCC(=O)N2CCN(Cc3ccccc3)CC2)cc1,inactive: -4.56%
14,O=c1[nH]c(=S)[nH]c(O)c1N=Nc1ccc2c(c1)OCCO2,active: -95.3%
15,Cc1cccc(CN2CCN(Cc3ccc(Cl)cc3)CC2)c1,inconclusive: -46.4%
16,O=C1NC(=S)SC1=Cc1ccc(N(CCCl)CCCl)cc1,inconclusive: -54.1%
17,O=C1NC(=O)C(=Cc2ccc(N3CCN(C(=O)c4ccccc4)CC3)c([N+](=O)[O-])c2)C(=O)N1,active: -74.8%
18,O=C1C=CC(=O)C2C1C1(Cl)C(Cl)=C(Cl)C2(Cl)C1(Cl)Cl (stereo not drawn),active: -94.8%
19,COc1cc(CC2(CCc3ccncc3)C(=O)NC(=O)NC2=O)cc(OC)c1OC,active: -79.5%
20,Cc1cccc(NC(=O)C(C)N2CC=C(c3ccccc3)CC2)c1 (stereo not drawn),inconclusive: -44%
21,CCCCOC(=O)c1ccccc1C(=O)OCc1ccccc1,inconclusive: -53.5%
22,COc1cc(C)c(-c2nc(CN3C[C@@H]4C[C@@H](C3)c3cccc(=O)n3C4)c(C)o2)cc1C,inconclusive: -47.2%

row,SMILES,"activity change, negative = inhibition"
1,Cc1ccc(N2C(=O)NC(=O)/C(=C\C=C\c3ccco3)C2=O)cc1C,active: -70.1%
2,Cc1ccc(S(=O)(=O)c2nc(-c3ccccc3Cl)oc2N(C)C2CCN(C)CC2)cc1,inconclusive: -50%
3,Cc1cc(C)cc(N2C(=O)NC(=O)/C(=C\c3cccn3-c3ccccc3)C2=O)c1,inactive: -15.5%
4,Cc1ccc(CN2C(=O)NC(=O)C3(Cc4c(nc5ccccn5c4=O)N4CCCCCC43)C2=O)cc1 (stereo not drawn),inconclusive: -43.9%
5,O=C1NC(=O)C(=Cc2ccc(Sc3ccccc3)o2)C(=O)N1,inconclusive: -50.8%
6,O=C(c1ccc2c(c1)N(Cc1ccc(F)cc1)C(=O)c1ccccc1S2)N1CCC2(CC1)OCCO2,inconclusive: -41.1%
7,O=C1NC(=O)N(c2ccc3c(c2)OCO3)C(=O)/C1=C/c1cccs1,inconclusive: -54.5%
8,CCOC(=O)Cc1csc(NC(=O)c2c(O)c3ccccc3n(CCC(C)C)c2=O)n1,inconclusive: -49.9%
9,O=C(c1cc2ccccn2n1)N1CCC2(CC1)OCCO2,inactive: -5.11%
10,Cc1cccc(CN2CCN(c3ccc(Cl)cc3)CC2)c1,inconclusive: -43.5%
11,Fc1ccc(CCNCc2ccc(Cl)c(Cl)c2)cc1,inactive: -8.69%
12,Cn1c(O)c(/C=C2\N=c3ccccc3=C2CCNC(=S)NC2CC2)c(=O)n(C)c1=O,inconclusive: -40.1%
13,COc1cc(C)c(CN2CC=C(c3ccc(F)cc3)CC2)cc1C,inconclusive: -56.2%
14,Cc1oc(-c2ccc(F)cc2F)nc1CN1C[C@@H]2C[C@@H](C1)c1cccc(=O)n1C2,inconclusive: -57.7%
15,O=C(c1ccc2c3c(cccc13)CC2)C1CCCN(CC2CC2)C1 (stereo not drawn),active: -62.7%
16,CCN1/C(=C/C=C/C2=[N+](CC)c3ccccc3C2(C)C)C(C)(C)c2ccccc21,inconclusive: -49%
17,CCCCC(CC)CNCC(O)c1ccccc1 (stereo not drawn),inconclusive: -42.6%
18,O=C(CN1CCCCC1)c1cccc(Br)c1,inactive: -7.05%
19,Oc1ccc(CCNCc2cc3c(cc2Br)OCO3)cc1,inactive: 8.96%
20,COc1ccc(Cn2c(O)c(/C=N/NC(=O)c3ccccc3O)c(=O)[nH]c2=O)cc1,inconclusive: -41.6%
21,CN(C)c1ccc(C=C2C(=O)NC(=S)NC2=O)cc1[N+](=O)[O-],inconclusive: -46.9%
22,O=c1c2ccccc2nc(CSc2ncnc3nc[nH]c23)n1-c1ccccc1,inactive: 0.255%
